# Measured values published in the supplement of paper PMC8728848.
# The other results are listed elsewhere or left out.
# B1: PkBDPgamma (Plasmodium knowlesi) (protein)
# chain: SAINQIFLQNNVMDKCNDKRKRGERDWDCPTEKDVCIPDRRYQLCMMEITNLVDTDTHFHSDIIFRKSYSRRRLIYDVGGRGDLLLKKYNNVYSEDLCKDIKWSLQDFGDIIMGTDMEGIGYSLVVQNNLRSIFGTGTSAELDRKKWWNDHKKDIWKAMILSVKEKNRYSAWNCKEDVQIKVEPQIYRWIREWGRDYMSEFREQRRKLNEKCEDKLYYSTMLICTLPPCNNACKSYDEWITGKKKQWDVLSTKFSSVKKAQKIETENIARAYDILKQELNGFNEVTFENEINKRDKLYNYFCVCIVQEARKNTQENVKNVGSGVESKAPSSNPINEAVKSSSGEGKVQEDSAHRSVNEGEGKSSTNEADPGSQPGAAASGGGSGGGTGGGVDLAPQMLRELQETNAALQDVRELLRQQVKEITFLKNTVMECDACGGPLDRNLPPLAPLGPTGGWSHPQFEK
# What was measured:
# Experiment in all cases: glycan array binding signal (z-score within array); higher = stronger binding
# Conditions in all cases: glycan notation: IUPAC condensed, linker removed
# Kdn(a2-3)Gal(b1-3)GlcNAc = biological target: Kdn(a2-3)Gal(b1-3)GlcNAc
# Outline: (§1)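 Negative Z-scores can be read as non-binding. The Z-score is calculated within each array and then averaged across arrays of one protein sequence at different concentrations or buffers and across linkers. Arrays, 3228 in all, were curated from the Consortium for Functional Glycomics database and kept only where the protein sequence was available.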
# Kdn(a2-3)Gal(b1-4)Glc = biological target: Kdn(a2-3)Gal(b1-4)Glc
# Outline: as §1
# Kdn(a2-3)Gal(b1-4)GlcNAc = biological target: Kdn(a2-3)Gal(b1-4)GlcNAc
# Outline: as §1
# [1] = biological target: Kdn(a2-3)Gal(b1-4)[Fuc(a1-3)]GlcNAc
# Outline: as §1
# Kdn(a2-6)Gal(b1-4)GlcNAc = biological target: Kdn(a2-6)Gal(b1-4)GlcNAc
# Outline: as §1
# [2] = biological target: Man(a1-2)Man(a1-2)Man(a1-3)Man
# Outline: as §1
# [3] = biological target: Man(a1-2)Man(a1-2)Man(a1-6)[Man(a1-3)]Man
# Outline: as §1
# Man(a1-2)Man(a1-3)Man = biological target: Man(a1-2)Man(a1-3)Man
# Outline: as §1
# [4] = biological target: Man(a1-2)Man(a1-3)[Man(a1-2)Man(a1-6)]Man
# Outline: as §1
# [5] = biological target: Man(a1-2)Man(a1-3)[Man(a1-2)Man(a1-6)]Man(a1-6)[Man(a1-2)Man(a1-2)Man(a1-3)]Man
# Outline: as §1
# [6] = biological target: Man(a1-2)Man(a1-3)[Man(a1-2)Man(a1-6)]Man(a1-6)[Man(a1-2)Man(a1-2)Man(a1-3)]Man(b1-4)GlcNAc(b1-4)GlcNAc
# Outline: as §1
# [7] = biological target: Man(a1-2)Man(a1-3)[Man(a1-6)]Man(a1-6)[Man(a1-2)Man(a1-3)]Man(b1-4)GlcNAc(b1-4)GlcNAc
# Outline: as §1
# [8] = biological target: Man(a1-2)Man(a1-6)[Man(a1-3)]Man(a1-6)[Man(a1-2)Man(a1-2)Man(a1-3)]Man
# Outline: as §1
# [9] = biological target: Man(a1-2)Man(a1-6)[Man(a1-3)]Man(a1-6)[Man(a1-2)Man(a1-2)Man(a1-3)]Man(b1-4)GlcNAc(b1-4)GlcNAc
# Outline: as §1
# Man(a1-3)[Man(a1-6)]Man = biological target: Man(a1-3)[Man(a1-6)]Man
# Outline: as §1
# [10] = biological target: Man(a1-3)[Man(a1-6)]Man(a1-6)[Man(a1-2)Man(a1-3)]Man(b1-4)GlcNAc(b1-4)GlcNAc
# Outline: as §1
# [11] = biological target: Man(a1-3)[Man(a1-6)]Man(a1-6)[Man(a1-3)]Man
# Outline: as §1
# [12] = biological target: Man(a1-3)[Man(a1-6)]Man(a1-6)[Man(a1-3)]Man(b1-4)GlcNAc(b1-4)GlcNAc
# Outline: as §1
# [13] = biological target: Man(a1-3)[Man(a1-6)]Man(b1-4)GlcNAc(b1-4)GlcNAc
# Outline: as §1
# [14] = biological target: Man(a1-3)[Man(a1-6)]Man(b1-4)GlcNAc(b1-4)[Fuc(a1-6)]GlcNAc
# Outline: as §1
# Man(a1-6)Man = biological target: Man(a1-6)Man
# Outline: as §1
# Man(b1-4)GlcNAc = biological target: Man(b1-4)GlcNAc
# Outline: as §1
# MurNAc(b1-4)GlcNAc = biological target: MurNAc(b1-4)GlcNAc
# Outline: as §1
# Neu5Ac(a2-3)Gal = biological target: Neu5Ac(a2-3)Gal
# Outline: as §1
# [15] = biological target: Neu5Ac(a2-3)Gal(b1-3)GalNAc
# Outline: as §1
# [16] = biological target: Neu5Ac(a2-3)Gal(b1-3)GalNAc(b1-3)Gal(a1-4)Gal(b1-4)Glc
# Outline: as §1
# [17] = biological target: Neu5Ac(a2-3)Gal(b1-3)GalNAc(b1-4)Gal(b1-4)Glc
# Outline: as §1
# [18] = biological target: Neu5Ac(a2-3)Gal(b1-3)GalNAc(b1-4)[Neu5Ac(a2-3)]Gal(b1-4)Glc
# Outline: as §1
# [19] = biological target: Neu5Ac(a2-3)Gal(b1-3)GalNAc(b1-4)[Neu5Ac(a2-8)Neu5Ac(a2-3)]Gal(b1-4)Glc
# Outline: as §1
# [20] = biological target: Neu5Ac(a2-3)Gal(b1-3)GalNAc6S
# Outline: as §1
# [21] = biological target: Neu5Ac(a2-3)Gal(b1-3)GlcNAc
# Outline: as §1
# [22] = biological target: Neu5Ac(a2-3)Gal(b1-3)GlcNAc(b1-2)Man
# Outline: as §1
# [23] = biological target: Neu5Ac(a2-3)Gal(b1-3)GlcNAc(b1-2)Man(a1-3)[GlcNAc(b1-4)][Neu5Ac(a2-3)Gal(b1-3)GlcNAc(b1-2)Man(a1-6)]Man(b1-4)GlcNAc(b1-4)GlcNAc
# Outline: as §1
# [24] = biological target: Neu5Ac(a2-3)Gal(b1-3)GlcNAc(b1-2)Man(a1-3)[Neu5Ac(a2-3)Gal(b1-3)GlcNAc(b1-2)Man(a1-6)]Man(b1-4)GlcNAc(b1-4)GlcNAc
# Outline: as §1
# [25] = biological target: Neu5Ac(a2-3)Gal(b1-3)GlcNAc(b1-2)[Neu5Ac(a2-3)Gal(b1-3)GlcNAc(b1-4)]Man(a1-6)[Neu5Ac(a2-3)Gal(b1-3)GlcNAc(b1-2)Man(a1-3)]Man(b1-4)GlcNAc(b1-4)GlcNAc
# Outline: as §1
# [26] = biological target: Neu5Ac(a2-3)Gal(b1-3)GlcNAc(b1-3)Gal(b1-3)GlcNAc
# Outline: as §1
# [27] = biological target: Neu5Ac(a2-3)Gal(b1-3)GlcNAc(b1-3)Gal(b1-4)GlcNAc
# Outline: as §1
# [28] = biological target: Neu5Ac(a2-3)Gal(b1-3)GlcNAc(b1-3)GalNAc
# Outline: as §1
binder,measurement,setting,value
B1,glycan array binding signal (z-score),Kdn(a2-3)Gal(b1-3)GlcNAc,-0.196
same,glycan array binding signal (z-score),Kdn(a2-3)Gal(b1-4)Glc,-0.465
same,glycan array binding signal (z-score),Kdn(a2-3)Gal(b1-4)GlcNAc,0.127
same,glycan array binding signal (z-score),[1],-0.399
same,glycan array binding signal (z-score),Kdn(a2-6)Gal(b1-4)GlcNAc,0.227
same,glycan array binding signal (z-score),[2],-0.441
same,glycan array binding signal (z-score),[3],0.045
same,glycan array binding signal (z-score),Man(a1-2)Man(a1-3)Man,-0.276
same,glycan array binding signal (z-score),[4],-0.09
same,glycan array binding signal (z-score),[5],-0.391
same,glycan array binding signal (z-score),[6],-0.427
same,glycan array binding signal (z-score),[7],-0.597
same,glycan array binding signal (z-score),[8],-0.277
same,glycan array binding signal (z-score),[9],-0.129
same,glycan array binding signal (z-score),Man(a1-3)[Man(a1-6)]Man,0.004
same,glycan array binding signal (z-score),[10],-0.149
same,glycan array binding signal (z-score),[11],0.071
same,glycan array binding signal (z-score),[12],0.232
same,glycan array binding signal (z-score),[13],-0.114
same,glycan array binding signal (z-score),[14],-0.208
same,glycan array binding signal (z-score),Man(a1-6)Man,-0.224
same,glycan array binding signal (z-score),Man(b1-4)GlcNAc,-0.344
same,glycan array binding signal (z-score),MurNAc(b1-4)GlcNAc,-0.109
same,glycan array binding signal (z-score),Neu5Ac(a2-3)Gal,-0.679
same,glycan array binding signal (z-score),[15],0.062
same,glycan array binding signal (z-score),[16],0.186
same,glycan array binding signal (z-score),[17],-0.635
same,glycan array binding signal (z-score),[18],-0.377
same,glycan array binding signal (z-score),[19],-0.132
same,glycan array binding signal (z-score),[20],-0.295
same,glycan array binding signal (z-score),[21],0.141
same,glycan array binding signal (z-score),[22],-0.43
same,glycan array binding signal (z-score),[23],0.175
same,glycan array binding signal (z-score),[24],0.171
same,glycan array binding signal (z-score),[25],-0.244
same,glycan array binding signal (z-score),[26],-0.352
same,glycan array binding signal (z-score),[27],-0.417
same,glycan array binding signal (z-score),[28],-0.301
